Over roughly 110,000 compounds, “z-score” has its median near -0.1; the highest 2% begin near 2. The list shows a part of the results. Activity calls are given as the source filed them.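 Rule for the calls: active = z-score in the third read window above 3 or below -3; inactive = the rest.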

The target in this assay is Metabotropic glutamate receptor 8 (Rattus norvegicus) (UniProt P70579). The assay is described as follows: rat mGluR8 modulators via GIRK flux, primary screen, cell-based, thallium flux, HTS (AID 488969). To be noted: HEK293 rat mGluR8, GIRK (G protein-gated inwardly rectifying potassium channel) thallium flux, FluoZin2; at 10 µM; stronger effect = higher value; submaximal glutamate (EC20) added with thallium.
UniProt P70579, sequence (P70579 whole entry, looked up): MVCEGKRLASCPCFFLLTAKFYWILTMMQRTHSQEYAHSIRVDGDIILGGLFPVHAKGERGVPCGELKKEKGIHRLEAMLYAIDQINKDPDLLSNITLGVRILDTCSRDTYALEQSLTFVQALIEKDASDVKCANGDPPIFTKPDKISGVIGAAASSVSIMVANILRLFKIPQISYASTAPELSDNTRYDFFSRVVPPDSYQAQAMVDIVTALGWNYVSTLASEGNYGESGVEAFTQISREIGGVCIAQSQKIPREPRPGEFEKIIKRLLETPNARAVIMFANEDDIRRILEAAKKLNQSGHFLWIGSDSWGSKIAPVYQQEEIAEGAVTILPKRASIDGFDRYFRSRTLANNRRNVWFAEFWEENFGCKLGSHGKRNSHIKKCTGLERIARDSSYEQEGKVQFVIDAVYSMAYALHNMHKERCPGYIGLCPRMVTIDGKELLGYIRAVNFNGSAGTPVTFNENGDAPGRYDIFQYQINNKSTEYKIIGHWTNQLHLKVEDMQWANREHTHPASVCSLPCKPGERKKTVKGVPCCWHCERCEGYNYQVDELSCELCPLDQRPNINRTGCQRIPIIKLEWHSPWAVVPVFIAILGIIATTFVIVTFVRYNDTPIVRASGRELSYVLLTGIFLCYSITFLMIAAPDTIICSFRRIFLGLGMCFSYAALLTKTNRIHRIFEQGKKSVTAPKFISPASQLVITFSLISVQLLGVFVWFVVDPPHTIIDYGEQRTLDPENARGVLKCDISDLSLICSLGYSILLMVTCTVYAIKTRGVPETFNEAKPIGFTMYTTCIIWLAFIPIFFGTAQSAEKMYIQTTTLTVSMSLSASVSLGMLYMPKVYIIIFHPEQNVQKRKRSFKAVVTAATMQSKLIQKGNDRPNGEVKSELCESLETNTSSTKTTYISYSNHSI
On to `COC(=O)c1ccc(N2C(=O)CC(SCCN)C2=O)cc1` (stereo not drawn), for which the z-score is -0.299.
Regarding `O=C(c1ccccc1)c1c[nH]c(C(=O)NCCCN2CCOCC2)c1`, the z-score is -0.228.
As to `Cc1ccc2nc(NC(=O)CCn3c(=O)sc4ccccc43)sc2c1`, the z-score was determined as 1.25.
The same measure for `Cc1ccc(Oc2ccc(NC(=O)Cn3ccsc3=N)cc2)cc1`: 1.42.
As to `O=C(NNC(=S)NC1CCCCC1)c1cccc(S(=O)(=O)Nc2ccccc2Cl)c1`, the z-score was -0.537.
On to `CCOC(=O)c1[nH]n(-c2ccc(Cl)cc2)c(=O)c1C`, for which the z-score was -0.0836.
As for `C=CCSc1nc(=O)n2cccc(C)c2n1`, the z-score amounted to 0.0351.
For `O=S(=O)(CCc1nnc(-c2ccc(Br)cc2)o1)c1ccc(Cl)cc1`, the z-score was determined as 0.21.
Compound `CCC(=O)n1nc(-c2ccc(OC)cc2)nc1N` yielded a z-score of 0.271.
Consider `C=CCOC(=O)C1=C(C)OC(N)=C(C#N)C1c1ccoc1` (stereo not drawn), for which the z-score came out at 0.081.
The same measure for `Cc1cc(C)cc(-n2ccnc2SCC(=O)Nc2ccc3c(c2)OCCO3)c1`: -0.332; for `CCN(CC)c1ccc(C(=O)c2ccccc2C(=O)O)c(O)c1`: -0.136.
In the case of `CCN1C(=O)C2(/C(=C(\O)c3ccc4c(c3)OCCO4)C(=O)C(=O)N2CCCOC)c2ccccc21` (stereo not drawn), the z-score is -0.147.
With `Cc1cccc(NC(=O)c2c(O)c3cccc4c3n(c2=O)CCC4)n1`, the z-score was -0.189.
For `CCOc1ccc(N2CC(C(=O)NCc3ccc(F)cc3)CC2=O)cc1` (stereo not drawn) the value was 0.23; for `Cc1cccc(Nc2ncccc2C(=O)O)c1C`, -1.17.
In turn, `O=C(CSC1=NCCN1)NC12CC3CC(CC(C3)C1)C2` registered a z-score of 0.547.
For the compound `O=C(O)c1[nH]c2ccc(Cl)cc2c1CC(=O)N1CCN(C(=O)c2ccco2)CC1`, the z-score is -0.193.
With `CC(C)(C)N1C(=O)c2ccc(C(=O)NCc3ccco3)cc2C1=O`, the z-score was -0.234.
Take `O=C1c2ccccc2C(=O)N1CCCCN(C(=O)c1cc2ccccc2oc1=O)c1ccc(Cl)cc1`: the z-score is 0.0894.
The same measure for `CCOC(=O)c1c(NC(=O)CSc2nc3ccccc3c(=O)n2-c2ccccc2)sc(C(C)=O)c1C`: -0.27.
Take `CSc1nc2ccc(N3C(=O)C4CCCCC4C3=O)cc2s1` (stereo not drawn): the z-score is -0.207.
In turn, `CC(C)C(=O)Nc1nnc(SCC(=O)N2c3ccccc3CC2C)s1` (stereo not drawn) yielded a z-score of 1.43.
On to `S=c1[nH]nc(-c2ccc(Cl)cc2Cl)n1Cc1ccccc1`, for which the z-score came to 1.5.
`OCc1csc(=Nc2ccccc2)n1-c1ccccc1` came in with a z-score of 0.398.
Consider `Cc1ccc(-n2nnc3c(=O)n(Cc4cccc(C)c4)cnc32)cc1`, for which the z-score is -0.451.
In turn, `CC(=O)Nc1ccc(S(=O)(=O)NCCc2csc(C)n2)cc1` registered a z-score of 0.339.
For `CCOC(=O)c1c(NC(=S)Nc2ccccc2)sc(C)c1C` the value was 0.0775.
As for `O=C(c1c(O)c2ccccc2oc1=O)C1CCCCC1`, the z-score is -0.484.
For the compound `COc1ccc(C(=O)N2c3ccccc3C(=O)OC2c2ccc3c(c2)OCO3)cc1` (stereo not drawn), the z-score is -0.678.
As to `Cc1ccc(C2CC(c3cccc(C)c3)n3ncnc3N2)cc1` (stereo not drawn), the z-score is -0.668.
`CC1=NN(c2ccc(Br)cc2)C(=O)/C1=C/c1cccs1` displayed a z-score of 0.0317.
As for `CCNC(=O)CN(c1ccccc1)S(=O)(=O)c1ccc(Cl)cc1`, the z-score was 0.107.
In the case of `COc1cc(C(=O)N/N=C\c2ccccc2)c([N+](=O)[O-])c(OC)c1OC`, the z-score is -0.0608.
The same measure for `Cc1cc(-c2ccco2)n(CC(=O)NCCN(C)C)n1`: -0.444.
The same measure for `CC1CC(=S)Nc2ccccc2S1` (stereo not drawn): 1.11; for `CN1OC(CC(=O)O)N(c2ccc(Cl)cc2)C1=O` (stereo not drawn): -1.27.
As to `NC(=O)CSc1nnc(-c2cccc(S(=O)(=O)N3CCOCC3)c2)n1C1CCCCCC1`, the z-score was -0.297.
For the compound `CC1=CC(C)(C)N(S(=O)(=O)c2ccc(C)cc2)c2cc(C)ccc21`, the z-score is -0.433.
In the case of `CC(C)(C)C(=O)Nc1cc2nn(-c3ccccc3)nc2cc1Cl`, the z-score is 0.108.
Take `COC(=O)CCSc1cc([N+](=O)[O-])cc2c1c(C1OCCS1)nn2-c1ccccc1` (stereo not drawn): the z-score is -0.51.
`CN(C(=O)c1ccc2c(c1)SC1=NS(=O)(=O)CCN12)C(c1ccccc1)c1ccccc1`: the z-score is -0.352.
For the compound `Cc1ccccc1NC(=O)CSc1nc(COc2ccccc2)nc2ccccc12`, the z-score worked out at 0.264.
For `Cc1nn(-c2ccccc2)c(N2CCCC2)c1/C=N/NC(=O)c1cccc(S(=O)(=O)Nc2ccc(Cl)cc2)c1`, the z-score stood at 1.17.
`N#Cc1c(C(F)(F)F)cc(-c2ccccc2)[nH]c1=O`: the z-score was -0.331.
On to `COc1ccc(C(C)(C)C)cc1NC(=S)NCCN1CCOCC1`, for which the z-score is -0.293.
`COc1ccccc1-c1nnc(SCC(=O)Nc2cc(C)on2)o1`: the z-score was -0.79.
Take `O=C(CN(c1ccccc1)S(=O)(=O)c1ccc(F)cc1)N1CCCCCC1`: the z-score is -0.00333.
`CCc1nnc(NC(=O)C2Cc3ccccc3CN2S(=O)(=O)c2cccs2)s1` (stereo not drawn) had a z-score of 0.0546.
For the compound `CC(c1ccccc1)n1c(SCC(=O)N2CC(=O)Nc3ccccc32)nc2ccccc2c1=O` (stereo not drawn), the z-score is active: 4.74.
Take `Cc1nc(-c2c(-c3ccc(O)cc3O)noc2C(F)(F)F)cs1`: the z-score was -0.215.
Consider `Cc1ccc(S(=O)(=O)NCC(=O)N(CC(=O)NC2CCCC2)c2ccc3c(c2)OCCO3)cc1`, for which the z-score was -0.641.
For the compound `CS(=O)(=O)N1CCC(C(=O)Nc2cc(C(F)(F)F)ccc2Cl)CC1`, the z-score amounted to 0.422.
The compound `Cc1ccc(NC(=O)COC(=O)CNC(=O)c2cccc([N+](=O)[O-])c2)cc1S(=O)(=O)N1CCCCCC1` registered a z-score of 0.745.
As to `CS(=O)(=O)NCc1ccc(C(=O)NCc2ccccc2)cc1`, the z-score is -0.187.
With `CCOc1ccc(-c2nnc(N)o2)cc1`, the z-score is 0.278.
In the case of `COc1ccc(-c2nc(C#N)c(NCc3ccc(C)cc3)o2)cc1OC`, the z-score was -0.0882.
For `CCOC(=O)CNS(=O)(=O)c1cc(-c2n[nH]c(=O)c3ccccc23)ccc1C`, the z-score was -1.16.
For `Oc1ccc(/C=N/NC(=S)NCC2CCCO2)cc1` (stereo not drawn), the z-score is -0.149.
`CCOC(=O)c1cnc2ccc(C(=O)OC)cc2c1NCCc1ccc(OC)c(OC)c1` yielded a z-score of 0.0244.
For `CC1(C)NC(=O)N(CC(O)COc2ccccc2-c2ccccc2)C1=O` (stereo not drawn) the value was -0.0843.
On to `Cc1ccc(S(=O)(=O)Nc2ccnc3ccccc23)cc1`, for which the z-score was -0.429.
`O=C(Nc1ccc(-c2nc3ccccc3o2)cc1)c1ccc2c(c1)OCO2` gave a z-score of 0.00429.
For the compound `COc1ccc(OCCCC(=O)Nc2cccnc2)cc1`, the z-score amounted to 0.364.
The same measure for `Cc1ccc2c(c1)NC(=O)C(N1CCOCC1)(C(F)(F)F)O2` (stereo not drawn): 1.63; for `CS(=O)(=O)N(CC(=O)Nc1ccccc1C(=O)NCCc1ccccc1)c1ccc2c(c1)OCCO2`: -0.493.
Take `Cc1ccc2c(c1)-c1c(ssc1=S)C(C)(C)N2C(=O)CN1C(=O)c2ccccc2C1=O`: the z-score is -0.494.
Turning to `COc1ccc(Cl)cc1NC(=O)Cc1c(F)cccc1Cl`, the z-score is -0.155.
With `Cc1ccc(C=Nc2ccccc2C(=O)Nc2ccccc2)cc1`, the z-score was -0.556.
As for `O=C1CNC(=O)N1CC(=O)N1CCCc2ccccc21`, the z-score was 0.0719.
Regarding `CCCCn1nc2cc(C(=O)N[C@H](C)C3CCCCC3)ccc2c1OCC`, the z-score is -0.455.
With `CCN(CC)CCNC(=O)C1CCC(=O)N(c2ccc(OC)cc2)C1c1ccc(F)cc1` (stereo not drawn), the z-score was found to be 0.555.
For the compound `CC(C)Oc1ccc(/C=C(\NC(=O)/C=C/c2ccco2)C(=O)NCCc2nc3ccccc3[nH]2)cc1`, the z-score is -0.676.
Take `O=c1ccc(/C=C/c2ccccc2)nn1Cc1ccc(Cl)cc1Cl`: the z-score worked out at 0.353.
For the compound `Cc1ccc(CC(=O)NCC(C)C)cc1`, the z-score was -0.0604.
Consider `Cn1c(=O)c2c(ncn2CC(=O)Nc2ccccc2)n(C)c1=O`, for which the z-score stood at 0.318.
`CCCc1cc(C(=O)OC)c(NC(=O)c2cc(C)on2)s1`: the z-score amounted to 0.519.
In the case of `O=C(Nc1ccc(OC(=O)c2cccs2)cc1)c1ccco1`, the z-score was 0.627.
Turning to `CCn1cc(Cl)c(C(=O)NNC(=O)CCn2cc([N+](=O)[O-])cn2)n1`, the z-score was -0.211.
For `Cc1cccc(C(=O)N[C@H](C(=O)Nc2nccs2)C(C)C)c1`, the z-score is 0.39.
With `Cc1cc(C)c(C#N)c(SCCS(=O)(=O)c2ccc(C(C)(C)C)cc2)n1`, the z-score is -0.387.
For `CC1(C)Cc2c(c(-c3ccco3)nc3sc4c(NCCN5CCOCC5)ncnc4c23)CO1`, the z-score was 0.876.
As to `N#CCCn1cnc2ccccc21`, the z-score is -0.0199.
As to `CC(Oc1ccc(Cl)cc1Cl)C(=O)/C=C/N(C)C` (stereo not drawn), the z-score came out at 0.0197.
With `CC(C)C(NC(=O)c1ccccc1)C(=O)NCc1ccccn1` (stereo not drawn), the z-score is 0.386.
With `Cc1c(N2C(=O)C(=O)/C(=C(/O)c3ccc(Cl)cc3)C2c2ccccc2)c(=O)n(-c2ccccc2)n1C` (stereo not drawn), the z-score is -0.314.
Take `CCCCC(=O)Nc1ccc(NC(=O)c2ccc([N+](=O)[O-])cc2Cl)cc1OC`: the z-score is -0.34.
For `O=C(COC(=O)c1ccc(Cl)c(S(=O)(=O)N2CCCC2)c1)NC1CCCC1` the value was -2; for `CCC(=O)Nc1ccc(Cl)c(NC(=O)c2cccnc2)c1`, -0.146.
For `CC(C)(C)Cc1nnc(NS(=O)(=O)c2ccc(F)cc2)s1`, the z-score was -0.206.
In turn, `CCOc1ccc(S(=O)(=O)N(CC(=O)O)c2ccc(C)cc2)cc1` displayed a z-score of 0.107.
Consider `O=C1NN=C(c2ccc(Cl)cc2)CC1c1cccc(Cl)c1` (stereo not drawn), for which the z-score was 0.0439.
Compound `CN=c1scc(-c2ccc(Br)cc2)n1C` showed a z-score of 0.223.
In the case of `CCn1c(Cc2ccccc2)nnc1SCC(=O)Nc1nnc(-c2ccccc2)s1`, the z-score was -0.126.
`CCN(CC)S(=O)(=O)c1ccc(C)c(NC(=O)Cn2c(=O)cnc3ccccc32)c1`: the z-score is -0.0978.
For `COc1cccc(/C=N/Nc2cc(-n3nc(C)cc3-c3ccccc3)ncn2)c1O` the value was -0.0565.
In turn, `O=C(Nc1cccc(C(=O)N2CCOCC2)c1)c1cccnc1` came in with a z-score of 0.2.
Regarding `CCC(C)N(C(=O)COC(=O)CCc1c[nH]c2ccccc12)C1CCS(=O)(=O)C1` (stereo not drawn), the z-score turned out to be 0.158.
In the case of `O=C(CN1C(=O)COc2ccccc21)NCc1ccc(C(=O)O)cc1`, the z-score was -0.0237.
In the case of `CCc1ccc2oc(-c3cc(N)cc(C)c3O)nc2c1`, the z-score came out at 0.32.
`Cc1nn(-c2ccccc2)c(N2CCCC2)c1/C=N/NC(=O)c1cc(-c2cccs2)nc2ccccc12`: the z-score is -0.174.
For `c1ccc(-c2nc3cc4ccccc4cc3[nH]2)nc1` the value was -0.116; for `Cc1c(NC(=O)OCCNC(=O)COc2c(Cl)cccc2Cl)sc(=S)n1C`, -0.376.
The same measure for `Cc1cc(OCC(F)(F)C(F)(F)C(F)(F)C(F)F)nc(N)n1`: -1.04; for `COc1ccc(-c2c/c(=N\c3nc(-c4ccccc4)c(C)s3)c3ccccc3o2)cc1O`: -0.00329.
Consider `Cc1ccc(NC(=O)CCC(=O)OCC(=O)c2ccc(Oc3ccc([N+](=O)[O-])cc3)cc2)cc1`, for which the z-score is -0.122.
As for `O=C(NC(C(=O)c1ccccc1)n1cnccc1=O)c1ccccc1` (stereo not drawn), the z-score was -1.21.
Take `CCC(C(=O)O/N=C(\N)c1ccc(Cl)cc1)c1ccccc1` (stereo not drawn): the z-score is -0.417.

The values above are taken from PubChem BioAssay AID488969 (Vanderbilt High Throughput Screening Facility, 2010).
